Measured values published in PubChem BioAssay AID1508624 (National Center for Advancing Translational Sciences (NCATS), 2021).
In all, about 48,000 compounds went through this assay and about 120 (0.25%) were called active. About 4% were inconclusive and are not listed. Calls follow the shape of the dose curve; as a rule, active = well fitted activation curve with a large enough effect; inconclusive = small, poorly fitted or top-dose-only effect, or another doubt; inactive = no such curve, though single readings can be large or run the other way. The list shows a part of the results.

assay: Primary qHTS for Identification of Small Molecule Activators of Huntingtin-Antisense Promoter Activity; conditions: HEK293 HTT-AS promoter firefly luciferase reporter, 24 h; series mostly up to 57.5 µM; activity change, positive = activation: at the top concentration; also: nearly all actives have a fitted effect of over 55% in size
Method in brief: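 HEK293 cells carrying firefly luciferase reporters were seeded at 2,500 per well in Opti-MEM and cultured for 24 h. They were then treated with compounds at up to 57.5 uM final for 24 h at 37 degrees C before Dual-Glo luminescence readout.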

Activity change, positive = activation, inactive:
COc1ccc(Cl)cc1NC(=O)NCCc1c(C)nn(C)c1C 6.16%
CCc1cccc(C)c1NC(=O)c1ccc2c(c1)CCN2S(=O)(=O)CC -30.6%
O=C(CSC1=Nc2ccccc2N=C(c2ccc(F)cc2)C1)Nc1ccc(Cl)cc1 -9.08%
CC(=O)Nc1ccc(NC(=O)c2cc(-c3cccs3)on2)cc1 -0.941%
Cc1ccc(Sc2c(C)nn(C(=O)c3ccc(Br)cc3)c2C)cc1 -20.7%
COc1ccc(Nc2ncnc3onc(C)c23)c(OC)c1 -13.5%
COc1ccccc1CNS(=O)(=O)c1ccc2c(c1)CC(C)N2C(=O)C1CCC1 (stereo not given) 0%
CC(C)(C)c1nnc(NS(=O)(=O)c2ccc(N)cc2)s1 -19.3%
COc1ccc(N2CCN(C(=O)C(C)n3c(=O)cc(C(F)(F)F)c4c(C)nn(C)c43)CC2)cc1 (stereo not given) -9.43%
CCC(C)NC(=O)Cc1ccc(NC(=O)N2CCCCc3ccccc32)cc1 (stereo not given) -16.3%
Cc1cc(C)cc(OCc2cc(=O)n3c4c(sc3n2)CCCC4)c1 -7.59%
Cc1ccc(-n2c(=O)c3oc4ccccc4c3n(CC(=O)Nc3ccc(F)c(Cl)c3)c2=O)cc1C -6.88%
N#Cc1ccccc1NC(=O)C(=O)NCC(c1ccc2c(c1)OCO2)N1CCOCC1 (stereo not given) -7.96%
O=C(CS(=O)(=O)c1cccc2nsnc12)Nc1ccc(F)cc1F -0.52%
CC(C)CCNC(=O)c1c2c(nc3ccccc13)C(=O)N(C1CCCCC1)C2 -4.87%
CC(=O)N1CCOc2cc(S(=O)(=O)Nc3c(C)cccc3C(C)C)c(Cl)cc21 -27.5%
O=C(Nc1ccccc1F)C1CCN(S(=O)(=O)c2ccc3c(c2)CCCN3C(=O)C2CCC2)CC1 -22.3%
CCCCN(C)C(=O)c1ccc2c(c1)N(Cc1ccc(F)cc1)C(=O)c1ccccc1S2(=O)=O -34.5%
Cc1ccc(-c2nc(CS(=O)CC(=O)N3CCN(c4ccc(F)cc4)CC3)c(C)o2)cc1 (stereo not given) -30.2%
CCc1ccccc1NC(=O)C(CC)Oc1ccccc1-c1nnc(-c2ccccc2)o1 (stereo not given) -13.2%
O=C(Nc1ccc(C(=O)OCc2cc(=O)n3nc(C4CC4)sc3n2)cc1)c1cccc(Cl)c1 8.45%
CCOC(=O)CCCN1C(=O)CCn2nc(-c3cn(C)c4ccccc34)cc21 -4.08%
CCCCN(Cc1ccccc1)S(=O)(=O)c1cc(Br)cc2c1N(C(C)=O)CC2 -0.93%
COc1ccc(C(=O)Nc2c(C(=O)c3ccc(F)cc3)oc3ccccc23)cc1 3.66%
CCc1cccc(C)c1NC(=O)C1CCN(S(=O)(=O)c2cccc3nonc23)CC1 -24.3%
O=C1CC(c2ccc(Cl)cc2)c2cc3c(cc2N1)OCCO3 (stereo not given) -28.8%
COc1ccc(-c2nc3c(c(SCC(=O)Nc4ccccc4OC)n2)Cc2cccc(C)c2O3)cc1 17.2%
CCOc1ccc(CNC(=O)c2cccn2-c2nnc(N3CCCCC3)s2)cc1OC -15.1%
CCOCCCNC(=O)c1cc(=O)[nH]c2ccc(S(=O)(=O)N3CCCC3)cc12 -12%
CCCCC(=O)Nc1c(C(=O)N2CCN(c3ccccc3)CC2)oc2ccccc12 -23%
CCCSc1ncc(Cl)c(C(=O)Nc2scc(-c3ccc(C)cc3)c2C(=O)OCC)n1 -6.48%
O=C1NC(=O)[C@@]2(CCOc3ccc(F)cc32)N1 -10.4%
Cc1ccc(Cl)cc1N1CCN(C(=O)c2nn(C)c3c2CS(=O)(=O)c2ccccc2-3)CC1 -30.1%
Cc1ccc(Cl)cc1NC(=O)c1cc(CN2CCCC2)on1 5.08%
COc1ccc(CCNC(=O)CCc2cn(Cc3ccc(F)cc3)c3ccccc23)cc1OC -40.9%
Cc1cccc(N2CCN(C(=O)c3cccn3-c3nnc(N4CCCCC4)s3)CC2)c1C -32.8%
CCc1ccc(NC(=O)c2ccc(NS(=O)(=O)c3c(C)noc3C)cc2)cc1 -27.1%
CCc1cccc(C)c1NC(=O)c1cc(S(=O)(=O)N2CCCCCC2)cn1C -23.5%
O=C(NC1CC1)c1ccc(Cn2c(SCc3ccc(F)cc3)nc3cccnc32)cc1 9.88%
COc1ccc(-c2cc(C(F)(F)F)nc(SCCC(=O)Nc3cccc(OC)c3)n2)cc1 -26.2%
COc1ccccc1N1CCN(S(=O)(=O)CCNC(=O)COc2ccccc2F)CC1 -13.4%
CC(=O)OCC(=O)[C@@]12N=C(C)O[C@H]1C[C@H]1[C@@H]3CCC4=CC(=O)C=C[C@]4(C)[C@@H]3[C@@H](O)C[C@@]12C -93.3%
O=C(CCCn1c(=O)c2sccc2n(Cc2ccc(Cl)cc2)c1=O)NCc1ccc2c(c1)OCO2 -23.6%
N#CC(=C1Nc2ccccc2S1)c1ccnc(OCc2ccc(CN3CCOCC3)cc2)n1 -45.7%
CCOC(=O)c1ccccc1NC(=O)c1cc2c(s1)-c1ccccc1SC2 -25.2%
CC1=C(c2ccc(Cl)cc2)S(=O)(=O)N=C1N1CCC(C(=O)NCCc2ccco2)CC1 -16.8%
COc1ccc(Br)cc1CNC(=O)CCc1cn(Cc2ccc(C)cc2)c2ccccc12 -18.7%
Cc1scc(CN2CCN(c3ccc(F)cc3)CC2)c1C -5.87%
COC(=O)c1sccc1S(=O)(=O)N1CCN(c2ccc(Cl)cc2)CC1 -29.3%
CC(C)c1ccc(NC(=O)CN2C(=O)CSc3ccc(S(=O)(=O)N4CCCC4)cc32)cc1 -19.5%
CC(C)CC(NC(=O)C1CCCCC1)C(=O)Nc1cccc(C(F)(F)F)c1 (stereo not given) -7.68%
Cc1ccc(NC(=O)c2sc3nc(-c4ccncc4)ccc3c2N)cc1 26.6%
Cc1ccc(CNC(=O)CCc2nnc3n(C)c(=O)c4sccc4n23)cc1 -21.9%
CCOc1ccc(S(=O)(=O)c2c(C(=O)c3ccc(C)c(C)c3)cnc3ccccc23)cc1 -10.6%
COc1cc(NC(=O)C(NS(=O)(=O)c2ccc3c(c2)CCCC(=O)N3)C(C)C)cc(OC)c1 (stereo not given) -2.15%
CC(=O)Nc1ccc(Nc2c(CCC(C)C)c(C)c(C#N)c3nc4ccccc4n23)cc1 4.38% [at 11.5 µM, percent change from vehicle, -100% = no light]
CC(=O)N[C@@H](CC(C)C)C(=O)O -2.22%
Cc1ccccc1C(=O)Nc1nnc(S(=O)(=O)N(C)c2ccc(Cl)cc2)s1 -39%
COC(=O)c1sccc1S(=O)(=O)N(CC(=O)Nc1ccc(C)c(F)c1)c1ccc(C)c(C)c1 -35.1%
Cc1ccccc1Cn1c(=O)n(CCc2ccccc2)c(=O)c2sc3ccccc3c21 27.4%
O=C(COc1ccc(F)cc1)Nc1ccc(S(=O)(=O)N(Cc2ccccc2)c2ccccc2)cc1 4.08%
CCc1ccc(CNC(=O)c2sc3nc[nH]c(=O)c3c2C)cc1 -7.88%
COc1ccc(-c2cc(C(C)=O)c(C)n2CCC(=O)Nc2ccc(C)c(Cl)c2)cc1 -34.3%
CCCNc1ncnc2c1c(-c1ccccc1)cn2-c1ccc(OCC)cc1 -13.2%
O=c1cc(CSc2ccccc2)[nH]c2ccc(F)cc12 -33.9%
COc1ccc(NC(=O)CCn2c(-c3ccc(F)cc3)cc(C(C)=O)c2C)c(OC)c1 -18.6%
Cc1ccc(NC(=O)c2c(C)oc3ccc(O)c(CN(C)Cc4ccccc4)c23)c(C)c1 -24.6%
CCc1ccc(Nc2nnc(-c3cc4cc(OC)ccc4oc3=O)s2)cc1 -12.9%
COc1ccc(OC)c(CNc2ncnc3c2nc2n3CCCC2)c1 -19.7%
CCN(C(=O)Cc1c(C(=O)O)c(C)cn1C)c1cccc(Cl)c1 -11%
CCc1c(C)nc(SCc2nc(-c3ccccc3C)no2)[nH]c1=O -38.5%
Cc1nc(N2CCCC2)ncc1C(=O)NCc1ccc(F)cc1 -3.68%
Cc1cn2c(=O)c(S(=O)(=O)Nc3ccc(N4CCOCC4)cc3)c(C)nc2s1 -7.23%
COCCNC(=O)c1cnn(-c2cccc(C)c2)c1-n1cccc1 4.4%
COc1cc2ncc3c(-c4ccccc4)nn(CC(=O)NC4CCCCC4)c3c2cc1OC -15.7%
CC1CCN(S(=O)(=O)c2cc(C(=O)NCc3ccccc3)n(C)c2)CC1 -14.6%
COc1ccc(C2=C(C)C(N3CCN(c4ccc(OC)cc4)CC3)=NS2(=O)=O)cc1 -13.9%
CN(C(=O)c1ccc2c(c1)N(Cc1ccc(F)cc1)C(=O)c1ccccc1S2(=O)=O)C1CCCCC1 -28.9%
COc1ccc(C(=O)NNc2ncnc3c2cnn3-c2ccc(C)cc2C)cc1 -15.3%
CCC(CC)C(=O)Nc1nnc(S(=O)(=O)N2c3ccccc3CC2C)s1 (stereo not given) -28.2%
CCOCCCn1c(=N)c(C(=O)NC(C)c2ccccc2)cc2c(=O)n3cccc(C)c3nc21 (stereo not given) -30.3%
Cc1cc(N2CCC(C(=O)Nc3ccccc3Cl)CC2)n2nc(C)c(-c3ccc(Cl)cc3)c2n1 -11.7%
Fc1cccc(-c2nnn3c2nc(NCc2ccc4c(c2)OCO4)c2ccccc23)c1 -1.35%
Cc1ccc2occ(CC(=O)Nc3ccc(Cl)c(C(F)(F)F)c3)c2c1 -84.4%
CCc1ccc(C(=O)NC2=NC(c3cc(OC)ccc3OC)CC(=O)N2)cc1 (stereo not given) -5.06%
CC(=O)Nc1ccc(NC(=O)C(c2ccccc2)N2Cc3ccccc3C2=O)cc1 (stereo not given) -4.28%
Cc1ccc(-c2nn(C)c(=O)c3ccccc23)cc1S(=O)(=O)NCCCN(C)C -5.27%
COC(=O)c1ccc(-c2nc(-c3ccc(OC)c(OC)c3)no2)cc1 15.9%
O=C(Nc1ccc(-c2nc3cc(NC(=O)c4ccc(Cl)cc4)ccc3o2)cc1)c1ccc(Cl)cc1 4.39%
COc1ccc(-c2cc(C(F)(F)F)n3nc(C(=O)Nc4sc5c(c4C(=O)OC(C)C)CCC(C)C5)cc3n2)cc1 (stereo not given) 1.63%
CCCN(CCC)C(=O)C1CCCN(S(=O)(=O)c2cc(Br)cc3c2N(C(=O)CC)CC3)C1 (stereo not given) -15.8%
CCc1ccc(-n2nc(CO)c(C(=O)NCc3cccnc3)n2)cc1 -7.8%
O=C(c1ccc2c(c1)N(Cc1ccc(Cl)cc1)C(=O)c1ccccc1S2(=O)=O)N1CCN(Cc2ccccc2)CC1 -37%
Cc1cc(C)cc(NC(=O)CCc2c(C)nc3c(c2C)c(=O)n(C)c(=O)n3C)c1 -3.12%
O=S(=O)(c1ccc(Br)cc1)c1nnn2c1nc(NCCc1ccccc1)c1sccc12 -7.62%
